Measurements as given in publication PMC4336329 (PLoS ONE, 2015).
Hit rate of the full screen: of about 310,000 compounds, about 2,200 (0.71%) showed an effect of 50% or more. Effects have a minus sign here. The list shows a part of the results.

biological target: human ether-à-go-go-related gene (hERG) potassium channel (human, UniProt Q12809); test: primary screen, population patch clamp on CHO cells stably expressing hERG
Sequence (Q12809 whole entry, looked up): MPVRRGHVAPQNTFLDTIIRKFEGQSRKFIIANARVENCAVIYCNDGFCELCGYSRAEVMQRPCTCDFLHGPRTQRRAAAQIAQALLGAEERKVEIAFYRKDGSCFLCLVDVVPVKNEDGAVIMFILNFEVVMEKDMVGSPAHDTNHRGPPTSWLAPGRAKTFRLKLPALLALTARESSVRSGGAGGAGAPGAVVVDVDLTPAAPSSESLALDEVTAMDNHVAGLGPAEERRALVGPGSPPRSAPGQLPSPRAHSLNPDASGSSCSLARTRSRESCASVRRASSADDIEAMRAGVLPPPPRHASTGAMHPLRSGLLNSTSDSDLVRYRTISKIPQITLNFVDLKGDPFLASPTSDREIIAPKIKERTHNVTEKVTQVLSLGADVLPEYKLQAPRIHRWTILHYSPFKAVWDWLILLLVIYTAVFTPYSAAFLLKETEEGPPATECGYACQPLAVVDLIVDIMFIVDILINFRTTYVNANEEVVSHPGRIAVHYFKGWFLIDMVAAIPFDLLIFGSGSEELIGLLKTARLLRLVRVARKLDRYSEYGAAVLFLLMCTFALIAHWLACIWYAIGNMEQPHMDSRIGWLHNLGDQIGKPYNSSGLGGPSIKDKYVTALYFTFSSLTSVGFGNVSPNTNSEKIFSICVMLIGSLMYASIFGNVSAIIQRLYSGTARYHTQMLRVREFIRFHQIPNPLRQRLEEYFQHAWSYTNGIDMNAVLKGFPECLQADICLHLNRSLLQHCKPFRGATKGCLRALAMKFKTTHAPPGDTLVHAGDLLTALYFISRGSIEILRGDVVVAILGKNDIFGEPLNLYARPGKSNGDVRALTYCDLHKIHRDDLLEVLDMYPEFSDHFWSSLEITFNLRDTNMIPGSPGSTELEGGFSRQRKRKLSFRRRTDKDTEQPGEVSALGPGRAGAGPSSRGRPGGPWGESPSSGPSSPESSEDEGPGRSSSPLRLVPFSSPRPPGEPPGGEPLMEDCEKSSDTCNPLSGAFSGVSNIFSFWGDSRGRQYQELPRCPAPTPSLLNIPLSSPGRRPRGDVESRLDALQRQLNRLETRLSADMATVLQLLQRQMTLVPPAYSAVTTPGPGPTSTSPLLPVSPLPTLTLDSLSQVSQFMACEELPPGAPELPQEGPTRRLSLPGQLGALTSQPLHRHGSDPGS

First: Cc1nc(C)c(C(=O)OCC(=O)NCCc2ccc(S(N)(=O)=O)cc2)s1
Second: CCN(CC)S(=O)(=O)c1ccc(C(=O)OCC(=O)NC2CCCC2)cc1
The “hERG current change (%, negative = inhibition) at 1uM” value of the first is lower: 4.91% for the first, 20.2% for the second.

Going from O=C(N=C1SC2CS(=O)(=O)CC2N1c1ccc(Br)cc1F)C1CC1 (centres unmarked) to O=C(N=C1SC2CS(=O)(=O)CC2N1c1ccc(Br)cc1Cl)C1CC1 (centres unmarked), the “hERG current change (%, negative = inhibition) at 1uM” value falls from 14.6% to 12.6%.

Going from CC(=O)c1c(O)c(C)c(-c2ccccc2)n(-c2ccccc2)c1=O to O=C(c1ccccc1)N1N=C(c2ccccc2)CC1c1ccccc1[N+](=O)[O-] (centres unmarked), the “hERG current change (%, negative = inhibition) at 1uM” value rises from 1.34% to 9.03%.

First: CC(C)Nc1nc(NC(C)C)nc(Nn2cnnc2)n1
Second: COC(=O)c1ccc(CSc2nnc(NC(C)C)s2)o1
The “hERG current change (%, negative = inhibition) at 1uM” value of the first is lower: 9.94% for the first, 23% for the second.

First: O=C(O)c1ccc(CSc2nnc(-c3ccncc3)n2-c2ccc(Br)cc2)cc1
Second: COc1ccc(Br)cc1C(=O)Nc1ccc(Cc2ccncc2)cc1
The “hERG current change (%, negative = inhibition) at 1uM” value of the first is higher: 2.92% for the first, -0.358% for the second.

Going from CCCCn1c(N)c(N(CC(C)C)C(=O)c2cccc(S(=O)(=O)N3CCCCC3)c2)c(=O)[nH]c1=O to CCCCn1c(N)c(N(CC(C)C)C(=O)c2ccc(C)c(S(=O)(=O)N3CCCCC3)c2)c(=O)[nH]c1=O, the “hERG current change (%, negative = inhibition) at 1uM” value falls from 18% to -9.25%.

Compared with CCN1CCN(CCCNC(=O)c2csc3c2CCCCC3)CC1, CCC(Oc1ccc(C)c(C)c1)C(=O)N1CCCN(C)CC1 (centres unmarked) is higher in “hERG current change (%, negative = inhibition) at 1uM” value: 6.49% for the first, 9.05% for the second.

Compared with Cc1onc(-c2c(F)cccc2Cl)c1C(O)c1ccc(F)cc1 (centres unmarked), O=C1CC2(CON=C2c2ccc(F)cc2)C(=O)N1c1ccc(F)cc1 (centres unmarked) is lower in “hERG current change (%, negative = inhibition) at 1uM” value: 13.3% for the first, 10.4% for the second.

Going from O=C(C1CCCC1)N(c1ccccc1)C1C=CS(=O)(=O)C1 (centres unmarked) to O=C(CN1C(=O)c2ccccc2S1(=O)=O)NC1CC2CCC1C2 (centres unmarked), the “hERG current change (%, negative = inhibition) at 1uM” value falls from 9.75% to 5.62%.

Compared with COc1ccc(-n2nc3c(c2NC(=O)c2ccc(N4C(=O)CCC4=O)cc2)CSC3)cc1, COc1ccc(N(CC(=O)NCC2CCCO2)C(=O)CCC(=O)Nc2nccs2)cc1 (centres unmarked) is lower in “hERG current change (%, negative = inhibition) at 1uM” value: 18% for the first, 14.4% for the second.

Going from O=C(CSc1nnnn1-c1ccccc1)N1CCN(C(=O)c2ccco2)CC1 to O=C(CCNS(=O)(=O)c1ccc(Cl)cc1)N1CCN(Cc2ccccc2)CC1, the “hERG current change (%, negative = inhibition) at 1uM” value rises from -22% to -16.1%.

First: Cc1nc(NCCC(C)C)c2nnn(Cc3ccccc3)c2n1
Second: Cc1ccnc(NC(=O)CC(c2ccccc2)c2ccccc2)n1
The “hERG current change (%, negative = inhibition) at 1uM” value of the first is higher: 11.3% for the first, 6.14% for the second.

First: CC(C)(C)C(=O)NC1CCN(S(=O)(=O)c2ccccc2F)CC1
Second: O=C(c1ccccc1S(=O)(=O)NCc1ccccc1)N1CCCC1
The “hERG current change (%, negative = inhibition) at 1uM” value of the first is higher: 7.45% for the first, 2.93% for the second.

Compared with CCCCOC(=O)C1=C(C)NC(=O)NC1c1ccc([N+](=O)[O-])s1 (centres unmarked), CCCOC(=O)Nc1cc(OC)ccc1[N+](=O)[O-] is higher in “hERG current change (%, negative = inhibition) at 1uM” value: 13.4% for the first, 16.1% for the second.

Compared with COc1cc2c(=O)n(CCC(=O)NCC3CCCO3)c(=O)n(CC(=O)Nc3ccc(C)cc3)c2cc1OC (centres unmarked), CCCCOc1ccc(N(CC(=O)NCC2CCCO2)C(=O)CCC(=O)Nc2cc(C)ccn2)cc1 (centres unmarked) is lower in “hERG current change (%, negative = inhibition) at 1uM” value: 11.9% for the first, 7.17% for the second.

Compared with O=S(=O)(c1ccc(Br)cc1)N1CCOC12CCCCC2, Cc1ccc(NS(=O)(=O)c2ccc(NC(=O)C3CCCO3)cc2)cc1 (centres unmarked) is higher in “hERG current change (%, negative = inhibition) at 1uM” value: 7.53% for the first, 12.2% for the second.

Compared with O=S(=O)(Nc1cccc(-c2cn3ccsc3n2)c1)c1ccc(F)cc1, COc1cc(/C=C(\C#N)C(=O)Nc2cccc(C(=O)O)c2)ccc1OCc1ccc(C)cc1 is lower in “hERG current change (%, negative = inhibition) at 1uM” value: 13% for the first, 9.81% for the second.

Compared with CCCC(=O)NC(c1ccco1)c1c(O)ccc2ccccc12 (centres unmarked), CCN(CC)CCCN1C(=O)C(O)=C(C(=O)c2cc3ccccc3o2)C1c1ccccn1 (centres unmarked) is higher in “hERG current change (%, negative = inhibition) at 1uM” value: 5.88% for the first, 11.7% for the second.

First: COC(=O)C(Cc1c[nH]c2ccccc12)NC(C)=O (centres unmarked)
Second: CC(=O)c1cn(CC(=O)NCC2CCCO2)c2ccccc12 (centres unmarked)
The “hERG current change (%, negative = inhibition) at 1uM” value of the first is lower: 9.43% for the first, 10.5% for the second.

Going from Cc1ccc(C2SCC(=O)Nc3c2c(=O)[nH]n3C2CCOC(C)(C)C2)cc1 (centres unmarked) to CN1C(=O)CC(N2CCN(Cc3ccc(Cl)cc3)CC2)C1=O (centres unmarked), the “hERG current change (%, negative = inhibition) at 1uM” value rises from 8.07% to 11.1%.

First: CCOC(=O)c1c(C)[nH]c(C(=O)OCC(=O)NCc2ccc(OC)c(OC)c2)c1C
Second: COc1cccc(C(=O)OCC(=O)c2[nH]c(C)c(C(C)=O)c2C)c1
The “hERG current change (%, negative = inhibition) at 1uM” value of the first is higher: 6.57% for the first, 2.96% for the second.

First: N#CCCn1cc(C(=O)Nc2ccccc2Br)c(-c2ccc3c(c2)OCCO3)n1
Second: Cc1cc(N=Cc2c(O)n(-c3ccc4c(c3)OCO4)c(=O)c3ccccc23)ccn1
The “hERG current change (%, negative = inhibition) at 1uM” value of the first is higher: 10.7% for the first, 7.15% for the second.

Going from O=C(C1=C[C@H](c2coc3ccccc3c2=O)C[C@H](OCc2ccc(CO)cc2)O1)N1CCN(Cc2ccccc2)CC1 to O=C(CSc1nnc(-c2ccccc2F)n1C1CC1)NC(=O)c1cccc([N+](=O)[O-])c1, the “hERG current change (%, negative = inhibition) at 1uM” value falls from 0.974% to -19.4%.

First: c1csc(-c2cn3c(n2)SCC3)c1
Second: CCn1ncc(Br)c1C(=O)Nc1nccs1
The “hERG current change (%, negative = inhibition) at 1uM” value of the first is lower: -4.97% for the first, -3.91% for the second.

First: CN(C)C(=O)CSc1nnc(Cc2ccc3c(c2)OCO3)o1
Second: O=c1[nH]c(/C=C/c2ccc3c(c2)OCO3)c([N+](=O)[O-])c(=O)[nH]1
The “hERG current change (%, negative = inhibition) at 1uM” value of the first is higher: 12.8% for the first, 7.58% for the second.

Compared with CCP(=O)(c1ccccc1)C(C)(C)O (centres unmarked), C/C(CC(O)(/C=N/O)c1ccccc1)=N\O (centres unmarked) is lower in “hERG current change (%, negative = inhibition) at 1uM” value: 15.3% for the first, 14.1% for the second.

Compared with CCOC(=O)Cn1nc(C)n(-c2ccc(F)cc2)c1=O, Cc1cc(C)cc(CC2CC(=O)N(c3nc(C)cc(C)n3)C2=O)c1 (centres unmarked) is lower in “hERG current change (%, negative = inhibition) at 1uM” value: 4.73% for the first, -5.23% for the second.

First: COc1ccc(/C=N/n2c(C3CCCCC3)n[nH]c2=S)c(OC)c1
Second: FC(F)(F)c1ccc2c(c1)NCC1CCCN21 (centres unmarked)
The “hERG current change (%, negative = inhibition) at 1uM” value of the first is lower: 14.1% for the first, 22.6% for the second.
